The campaign covered roughly 46,000 compounds. About 60 (0.1%) were called active. Inconclusive results (about 3%) are left out. Calls follow the shape of the dose curve; as a rule, active = well fitted inhibition curve with a large enough effect; inconclusive = small, poorly fitted or top-dose-only effect; inactive = no such curve, though single readings can be large or run the other way. Some of the results follow.

The nature of this assay: Primary qHTS assay for Inhibitors of ovarian cancer metastasis using an organotypic tumor microenvironment (TME) model. Also: nearly all actives have a fitted effect of over 65% in size.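 As to activity change, negative = inhibition: plate controls were DMSO wells for no effect and tomatine positive control wells for full effect.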 Particulars: SKOV3ip1-GFP adhesion/invasion on 3D omental model, fluorescence; series mostly up to 45.8 µM; activity change, negative = inhibition: at the top concentration. The procedure, abridged: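 Primary human omental fibroblast/mesothelial 3D culture pre-formed 48 h. SKOV3ip1-GFP cells added with compounds (0.36-46 umol/L), incubated 2 h RT/16 h 37 C, fixed; GFP cells quantified at 488/509 nm.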
Consider `Cc1ccccc1-c1nc(SCC(=O)NCc2ccc(F)cc2)c2c(=O)n(C)c(=O)n(C)c2n1`, for which the “activity change, negative = inhibition” value is inactive: -4.01%.

In the case of `Cc1ccc2nc(N(CCCN(C)C)C(=O)c3ccco3)sc2c1`, the “activity change, negative = inhibition” value was inactive: -8.55%.

With `Cc1ccc(-n2nc(CO)c(C(=O)NCc3ccccn3)n2)cc1`, the result was inactive.

In the case of `O=C(CCn1nc(-c2ccccc2)c2ccccc2c1=O)Nc1ccccc1`, the “activity change, negative = inhibition” value was inactive: -7.63%.

As for `Cc1cccc(C)c1NC(=O)Nc1csc2c1CCCC2`, the compound was called inactive.

On to `COc1ccccc1N1CCN(c2nc3ccccc3n3cnnc23)CC1`, for which the “activity change, negative = inhibition” value is inactive: 0.772%.

As for `COc1ccc(-c2nc(-c3cc4cc(Br)ccc4oc3=O)cs2)cc1`, the “activity change, negative = inhibition” value was inactive: 6.81%.

`Cc1ccc2c(c1)N(C(=O)N1CCC(C(=O)NCc3cccc(Br)c3)CC1)CCO2`: the “activity change, negative = inhibition” value was inactive: 2.29%.

For the compound `CCc1ccc(-n2nnc(-c3nsc(NC(=O)c4ccccc4Cl)n3)c2C)cc1`, the result was inactive.

With `CC(=O)Nc1ccc(NC(=O)c2cc(=O)c3ccccc3o2)cc1`, the “activity change, negative = inhibition” value was inactive: 0.713%.

As to `COc1ccc(OCc2ccc(-c3nc(C#N)c(N4CCN(c5ccccc5)CC4)o3)o2)cc1`, the “activity change, negative = inhibition” value is inactive: 10%.

For `Cc1cc(-c2ccc(C)c(S(=O)(=O)Nc3cccc(C)n3)c2)on1`, the “activity change, negative = inhibition” value was inactive: 3%.

On to `COc1cccc2cc(S(=O)(=O)c3ccc(F)c(C)c3)c(=O)oc12`, for which the “activity change, negative = inhibition” value was inactive: 5.33%.

For the compound `O=C(COc1ccccc1F)OCc1cc(=O)n2nc(C3CCCCC3)sc2n1`, the “activity change, negative = inhibition” value is inactive: -1.58%.

Consider `COc1ccc(Nc2nc3ccccc3nc2NS(=O)(=O)c2ccc(C)cc2)c(OC)c1`, for which the “activity change, negative = inhibition” value is inactive: -8.84%.

As to `COC(=O)c1sc2cccc(F)c2c1S(=O)(=O)N1CCN(c2cccc(OC)c2)CC1`, the “activity change, negative = inhibition” value is inactive: -12.5%.

As to `CCOC(=O)c1cc(-c2ccccc2)n(CCC(=O)NCc2ccccc2Cl)c1C`, the “activity change, negative = inhibition” value was inactive: 2.86%.

As to `Fc1ccc(N2CCN(c3nc4ccccc4c4nc(-c5cccnc5)nn34)CC2)cc1`, the “activity change, negative = inhibition” value is inactive: 12%.

On to `CCc1ccc(S(=O)(=O)c2cn(C)c3cc(N4CCOCC4)c(F)cc3c2=O)cc1`, for which the outcome was inactive.

For `Cc1c(Cl)cccc1-c1ccc(CNCCCSc2nnnn2C)o1`, the “activity change, negative = inhibition” value was inactive: -3.14%.

Consider `CCCCN(C)CCNC(=O)C1CCCN(S(=O)(=O)c2cccc3nsnc23)C1` (stereo not drawn), for which the “activity change, negative = inhibition” value is inactive: 48.2%.

Turning to `Cc1nc2nc(SCC(=O)N(C)Cc3ccccc3)nn2c(C)c1Cc1ccccc1Cl`, the “activity change, negative = inhibition” value was inactive: -16.7%.

As to `Cc1cc(C)c(S(=O)(=O)N2CCC(n3c(C(F)(F)F)nc4cccnc43)CC2)c(C)c1`, the “activity change, negative = inhibition” value is inactive: -12.8%.

On to `O=C1Nc2ccccc2Oc2cc(Oc3cccc(Cl)c3)ccc21`, for which the “activity change, negative = inhibition” value was inactive: -5.68%.

For `CCOc1ccc(NC(=O)c2c(C)nn(-c3ccc(F)cc3)c2-n2cccc2)cc1`, the compound was classed as inactive.

Turning to `C=CCc1ccccc1OCCSc1nc(-c2cccs2)nc2cc(=O)[nH]n12`, the result was inactive.

Turning to `CCOC(=O)C1CCN(CC(=O)Nc2cc(C)c3c(=O)oc4ccccc4c3n2)CC1`, the “activity change, negative = inhibition” value was inactive: -6.98%.

In the case of `Cc1cn2c(=O)cc(COc3cccc(NC(=O)c4ccc(C(C)(C)C)cc4)c3)nc2s1`, the “activity change, negative = inhibition” value was inactive: -2.92%.

`Cc1ccc(NC(=O)CN(C)S(=O)(=O)c2ccc3c(c2)n(C)c(=O)c(=O)n3C)cc1F`: the “activity change, negative = inhibition” value is inactive: 5.9%.

Turning to `N#CC(=C(N)Sc1ccc(N)cc1)c1ccccc1C(F)(F)F`, the “activity change, negative = inhibition” value was inactive: 6.86%.

As for `O=C(Nc1ccc(OCc2cc(=O)n3c4c(sc3n2)CCCC4)cc1)c1cccc(F)c1`, the compound was classed as inactive.

For the compound `O=C(CCn1cnc2onc(-c3ccc(F)cc3)c2c1=O)Nc1ccc(F)c(Cl)c1`, the “activity change, negative = inhibition” value is inactive: -5.91%.

`Cc1nn(-c2ccccc2)c2nc(C3CC3)cc(C(=O)Nc3ccc(F)cc3)c12`: the “activity change, negative = inhibition” value was inactive: 2.05%.

`CCn1nc(C)c2c(-c3ccccc3)cc(=O)n(C(C)C(=O)Nc3cccc(F)c3)c21` (stereo not drawn): the “activity change, negative = inhibition” value is inactive: 0.658%.

`CCOc1ccc(NC(=O)CSc2oc(-c3cccs3)nc2S(=O)(=O)c2ccc(C)cc2)cc1`: the “activity change, negative = inhibition” value is inactive: -21.9%.

For `Cc1ccc(C)c(Nc2nnc(-c3ccc(C)c(S(=O)(=O)N4CCN(C)CC4)c3)c3ccccc23)c1`, the “activity change, negative = inhibition” value is inactive: -5.81%.

With `CCc1ccc(NC(=O)C(=O)NCCc2csc(-c3cccc(F)c3)n2)cc1`, the result was inactive.

With `Cc1ccccc1CCNC(=O)c1ccc(NC(=O)N2CC(C)Sc3ccccc32)cc1` (stereo not drawn), the “activity change, negative = inhibition” value was inactive: 3.11%.

Consider `COc1ccccc1NC(=O)c1sc2nc3c(c(C(F)(F)F)c2c1N)CN(C(C)=O)CC3`, for which the “activity change, negative = inhibition” value was inactive: 3.5%.

As to `O=C(COc1ccc(Cl)cc1)NCC(c1ccco1)S(=O)(=O)c1ccccc1` (stereo not drawn), the “activity change, negative = inhibition” value is inactive: -8.66%.

`Cc1ccn2c(Nc3ccccc3C)c(-c3ccc(N4CCOCC4)cc3)nc2c1`: the “activity change, negative = inhibition” value is inactive: -8.33%.

`Cc1cc(C)c(NC(=O)CSc2n[nH]c(-c3ccccc3Cl)n2)c(C)c1`: the “activity change, negative = inhibition” value is inactive: -5.75%.

Regarding `Cc1nn(-c2ccc(N3CCOCC3)nn2)c(C)c1CCC(=O)NCc1ccccc1`, the compound was called inactive.

On to `COC(=O)c1ccc(NC(=O)CN(Cc2ccccc2)S(=O)(=O)c2ccc(C)cc2)cc1`, for which the “activity change, negative = inhibition” value was inactive: 7.51%.

As for `COc1cc(C2C(=O)N(C3CCCCCC3)CC(=O)N2Cc2ccccc2)ccc1OC(C)C` (stereo not drawn), the “activity change, negative = inhibition” value was inactive: -10.2%.

Turning to `C=C(C)Cn1c(=O)c2c(nc3n2CCN3c2cc(C)cc(C)c2)n(C)c1=O`, the “activity change, negative = inhibition” value is inactive: -11.6%.

With `CN(C)CCNC(=O)CN1N=C(c2ccccc2)CCC1=O`, the result was inactive.

For the compound `COc1ccc(N2CCN(C(=O)C3CCN(Cc4nc(-c5ccc(Cl)cc5)oc4C)CC3)CC2)cc1`, the “activity change, negative = inhibition” value was inactive: 25.4%.

These data come from PubChem BioAssay AID1963576 (National Center for Advancing Translational Sciences (NCATS), 2024).
